# Some of the results follow.
# B1: PNA (Arachis hypogaea), P02872 (protein)
# chain: MKPFCVFLTFFLLLAASSKKVDSAETVSFNFNSFSEGNPAINFQGDVTVLSNGNIQLTNLNKVNSVGRVLYAMPVRIWSSATGNVASFLTSFSFEMKDIKDYDPADGIIFFIAPEDTQIPAGSIGGGTLGVSDTKGAGHFVGVEFDTYSNSEYNDPPTDHVGIDVNSVDSVKTVPWNSVSGAVVKVTVIYDSSTKTLSVAVTNDNGDITTIAQVVDLKAKLPERVKFGFSASGSLGGRQIHLIRSWSFTSTLITTTRRSIDNNEKKIMNMASA
# Assays:
# Test in all cases: glycan array binding signal (z-score within array); higher = stronger binding
# Settings in all cases: glycan notation: IUPAC condensed, linker removed
# [1] = molecular target: Neu5Ac(a2-3)Gal(b1-4)[6dTal(a1-3)]GlcNAc(b1-3)Gal
# How it was run: (§1)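 The binding signal is a Z-score computed within each array. Data were drawn from 3228 arrays in the Consortium for Functional Glycomics database, restricted to those with a known protein sequence. Scores were averaged over arrays of the same protein sequence at different concentrations or buffers, and over linkers, and negative values can be taken as non-binding.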
# [2] = molecular target: Neu5Ac(a2-3)Gal(b1-4)[Fuc(a1-3)]Glc
# How it was run: as §1
# [3] = molecular target: Neu5Ac(a2-3)Gal(b1-4)[Fuc(a1-3)]GlcNAc
# How it was run: as §1
# [4] = molecular target: Neu5Ac(a2-3)Gal(b1-4)[Fuc(a1-3)]GlcNAc(b1-2)Man
# How it was run: as §1
# [5] = molecular target: Neu5Ac(a2-3)Gal(b1-4)[Fuc(a1-3)]GlcNAc(b1-3)Gal
# How it was run: as §1
# [6] = molecular target: Neu5Ac(a2-3)Gal(b1-4)[Fuc(a1-3)]GlcNAc(b1-3)Gal(b1-4)Glc
# How it was run: as §1
# [7] = molecular target: Neu5Ac(a2-3)Gal(b1-4)[Fuc(a1-3)]GlcNAc(b1-3)Gal(b1-4)GlcNAc
# How it was run: as §1
# [8] = molecular target: Neu5Ac(a2-3)Gal(b1-4)[Fuc(a1-3)]GlcNAc(b1-3)Gal(b1-4)[Fuc(a1-3)]GlcNAc(b1-3)Gal(b1-4)Glc
# How it was run: as §1
# [9] = molecular target: Neu5Ac(a2-3)Gal(b1-4)[Fuc(a1-3)]GlcNAc(b1-3)Gal(b1-4)[Fuc(a1-3)]GlcNAc(b1-3)Gal(b1-4)[Fuc(a1-3)]GlcNAc
# How it was run: as §1
# [10] = molecular target: Neu5Ac(a2-3)Gal(b1-4)[Fuc(a1-3)]GlcNAc(b1-3)GalNAc
# How it was run: as §1
# [11] = molecular target: Neu5Ac(a2-3)Gal(b1-4)[Fuc(a1-3)]GlcNAc(b1-4)GalNAc(b1-3)Gal(b1-4)Glc
# How it was run: as §1
# [12] = molecular target: Neu5Ac(a2-3)Gal(b1-4)[Fuc(a1-3)]GlcNAc(b1-6)Gal(b1-4)Glc
# How it was run: as §1
# [13] = molecular target: Neu5Ac(a2-3)Gal(b1-4)[Fuc(a1-3)]GlcNAc(b1-6)[Gal(b1-3)]GalNAc
# How it was run: as §1
# [14] = molecular target: Neu5Ac(a2-3)Gal(b1-4)[Fuc(a1-3)]GlcNAc(b1-6)[Neu5Ac(a2-3)Gal(b1-3)]GalNAc
# How it was run: as §1
# [15] = molecular target: Neu5Ac(a2-3)Gal(b1-4)[Fuc(a1-3)]GlcNAc6S
# How it was run: as §1
# [16] = molecular target: Neu5Ac(a2-3)Gal(b1-4)[Fuc(a1-3)]GlcNAc6S(b1-3)Gal(b1-4)Glc
# How it was run: as §1
# [17] = molecular target: Neu5Ac(a2-3)Gal(b1-4)[Fuc2Me(a1-3)]GlcNAc(b1-3)Gal
# How it was run: as §1
# [18] = molecular target: Neu5Ac(a2-3)Gal(b1-4)[Qui(a1-3)]GlcNAc(b1-3)Gal
# How it was run: as §1
# [19] = molecular target: Neu5Ac(a2-3)Gal(b1-4)[Rha(a1-3)]GlcNAc(b1-3)Gal
# How it was run: as §1
# Neu5Ac(a2-3)Gal3S = molecular target: Neu5Ac(a2-3)Gal3S
# How it was run: as §1
# [20] = molecular target: Neu5Ac(a2-3)Gal6S(b1-4)GlcNAc
# How it was run: as §1
# [21] = molecular target: Neu5Ac(a2-3)Gal6S(b1-4)[Fuc(a1-3)]GlcNAc
# How it was run: as §1
# [22] = molecular target: Neu5Ac(a2-3)Gal6S(b1-4)[Fuc(a1-3)]GlcNAc(b1-3)Gal(b1-4)Glc
# How it was run: as §1
# [23] = molecular target: Neu5Ac(a2-3)Gal6S(b1-4)[Fuc(a1-3)]GlcNAc6S(b1-3)Gal(b1-4)Glc
# How it was run: as §1
# Neu5Ac(a2-3)GalNAc = molecular target: Neu5Ac(a2-3)GalNAc
# How it was run: as §1
# [24] = molecular target: Neu5Ac(a2-3)GalNAc(b1-4)GlcNAc
# How it was run: as §1
# [25] = molecular target: Neu5Ac(a2-3)GalNBz(b1-4)GlcNAc
# How it was run: as §1
# [26] = molecular target: Neu5Ac(a2-3)[GalNAc(b1-4)]Gal(b1-3)Gal
# How it was run: as §1
# [27] = molecular target: Neu5Ac(a2-3)[GalNAc(b1-4)]Gal(b1-3)GalNAc(b1-4)[Neu5Ac(a2-3)]Gal(b1-4)Glc
# How it was run: as §1
# [28] = molecular target: Neu5Ac(a2-3)[GalNAc(b1-4)]Gal(b1-3)Glc
# How it was run: as §1
# [29] = molecular target: Neu5Ac(a2-3)[GalNAc(b1-4)]Gal(b1-4)Glc
# How it was run: as §1
# [30] = molecular target: Neu5Ac(a2-3)[GalNAc(b1-4)]Gal(b1-4)GlcNAc
# How it was run: as §1
# [31] = molecular target: Neu5Ac(a2-3)[GalNAc(b1-4)]Gal(b1-4)GlcNAc(b1-3)GalNAc
# How it was run: as §1
# [32] = molecular target: Neu5Ac(a2-3)[GalNAc(b1-6)]Gal(b1-4)Glc
# How it was run: as §1
# [33] = molecular target: Neu5Ac(a2-3)[Neu5Ac(a2-6)]GalNAc
# How it was run: as §1
# Neu5Ac(a2-6)Gal = molecular target: Neu5Ac(a2-6)Gal
# How it was run: as §1
# [34] = molecular target: Neu5Ac(a2-6)Gal(b1-3)GalNAc(b1-4)Gal(b1-4)Glc
# How it was run: as §1
# [35] = molecular target: Neu5Ac(a2-6)Gal(b1-3)GlcNAc(b1-3)[Fuc(a1-3)[Gal(b1-4)]GlcNAc(b1-6)]Gal(b1-4)Glc
# How it was run: as §1
binder,measurement,setting,value
B1,glycan array binding signal (z-score),[1],-0.195
same,glycan array binding signal (z-score),[2],-0.195
same,glycan array binding signal (z-score),[3],-0.192
same,glycan array binding signal (z-score),[4],-0.295
same,glycan array binding signal (z-score),[5],-0.198
same,glycan array binding signal (z-score),[6],-0.195
same,glycan array binding signal (z-score),[7],-0.122
same,glycan array binding signal (z-score),[8],-0.195
same,glycan array binding signal (z-score),[9],-0.112
same,glycan array binding signal (z-score),[10],-0.138
same,glycan array binding signal (z-score),[11],-0.195
same,glycan array binding signal (z-score),[12],-0.195
same,glycan array binding signal (z-score),[13],-0.068
same,glycan array binding signal (z-score),[14],0.075
same,glycan array binding signal (z-score),[15],-0.225
same,glycan array binding signal (z-score),[16],-0.195
same,glycan array binding signal (z-score),[17],-0.195
same,glycan array binding signal (z-score),[18],-0.195
same,glycan array binding signal (z-score),[19],-0.195
same,glycan array binding signal (z-score),Neu5Ac(a2-3)Gal3S,-0.195
same,glycan array binding signal (z-score),[20],-0.196
same,glycan array binding signal (z-score),[21],-0.18
same,glycan array binding signal (z-score),[22],-0.195
same,glycan array binding signal (z-score),[23],-0.195
same,glycan array binding signal (z-score),Neu5Ac(a2-3)GalNAc,-0.212
same,glycan array binding signal (z-score),[24],-0.196
same,glycan array binding signal (z-score),[25],-0.195
same,glycan array binding signal (z-score),[26],-0.195
same,glycan array binding signal (z-score),[27],-0.195
same,glycan array binding signal (z-score),[28],-0.195
same,glycan array binding signal (z-score),[29],-0.162
same,glycan array binding signal (z-score),[30],-0.138
same,glycan array binding signal (z-score),[31],-0.066
same,glycan array binding signal (z-score),[32],-0.195
same,glycan array binding signal (z-score),[33],-0.148
same,glycan array binding signal (z-score),Neu5Ac(a2-6)Gal,-0.161
same,glycan array binding signal (z-score),[34],-0.195
same,glycan array binding signal (z-score),[35],-0.195
